Experimental data from PubChem BioAssay (NCATS).
The shares of active, inactive and inconclusive entries below differ from those in the screen. No potency is given beside an inconclusive call; the fits are too rough. Active and inactive are the calls of the source. Calls come from the whole dose curve; as a rule, active = well fitted activation curve with a large enough effect; inconclusive = small, poorly fitted or top-dose-only effect; inactive = no such curve, though single readings can be large or run the other way.

Molecular target: Cytochrome P450 3A4 (Homo sapiens) (UniProt P08684)
UniProt P08684, sequence (P08684 whole entry, looked up): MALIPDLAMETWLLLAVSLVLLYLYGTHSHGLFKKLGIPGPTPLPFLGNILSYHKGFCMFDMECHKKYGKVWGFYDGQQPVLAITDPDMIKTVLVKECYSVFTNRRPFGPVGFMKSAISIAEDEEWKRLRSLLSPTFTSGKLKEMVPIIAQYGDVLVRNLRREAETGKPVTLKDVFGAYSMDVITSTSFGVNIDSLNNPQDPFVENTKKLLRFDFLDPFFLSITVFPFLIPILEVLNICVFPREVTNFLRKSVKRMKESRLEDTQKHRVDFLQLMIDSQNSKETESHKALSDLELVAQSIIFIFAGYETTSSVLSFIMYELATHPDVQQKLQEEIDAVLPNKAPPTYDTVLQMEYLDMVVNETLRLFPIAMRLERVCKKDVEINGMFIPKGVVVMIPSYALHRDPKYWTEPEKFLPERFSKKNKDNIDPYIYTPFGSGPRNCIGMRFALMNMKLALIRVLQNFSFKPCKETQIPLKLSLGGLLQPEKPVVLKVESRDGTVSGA
Test: qHTS Assay for Activators of Cytochrome P450 3A4 (AID 885); note: nearly all actives have a fitted effect of over 65% in size
Settings: recombinant CYP3A4, Luciferin-PPXE luminescence, 60 min; series mostly up to 57.1 µM
Method in brief: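 CYP3A4 activity: Luciferin-PPXE O-dealkylation, 25uM substrate, 200mM KPO4, RT throughout. Read-out is luciferase luminescence; higher values reflect activation.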
Potency is the fitted concentration of half-maximal effect; tags give direction and shape of the fitted curve.

| SMILES | Potency | activity change, positive = activation |
| --- | --- | --- |
| C[C@](O)(c1ccccc1)c1nccc2ccccc12 | inconclusive [activator, single point] | – |
| N=c1ccn2c(n1)O[C@@H]1[C@@H](O)[C@H](CO)O[C@H]12 | inconclusive [activator, single point] | – |
| COC(=O)N1CCC2(CCN(Cc3nccs3)CC2)CC1 | inconclusive [activator, single point] | – |
| COc1ccc2c(c1OC)C(=O)O[C@H]2C1c2c(cc3c(c2OC)OCO3)CCN1C (some centres undefined) | inactive | – |
| COC(=O)[C@H]1C[C@@H]1[C@H](NC(=O)c1ccccc1)c1ccccc1 | inconclusive [activator, partial curve] | – |
| CC(=O)OCC1OC(C#Cc2ccc(C)cc2C)C=CC1OC(C)=O (centres undefined) | – | inactive: -83.4% [at 11.4 µM] |
| CC(=O)C1CCC2C3CCC4=CC(=O)CC[C@@]4(C)C3CC[C@]12C (some centres undefined) | inconclusive [activator, single point] | – |
| COC(=O)[C@@]1(Cc2ccc(F)cc2)[C@@H]2[C@@H](CC(=O)[C@H]2CC(=O)C(=O)N(C)C)CN1C(=O)c1ccccc1 | inactive | – |
| COc1ccc(NC(=O)N2CCC3(CC2)CCN(C(=O)c2cccn2C)CC3)cc1 | inconclusive [activator, partial curve] | – |
| C#CCCCO/N=C1/C[C@@H](O)[C@@H](O)[C@@H]2[C@@H]3C(=O)N(C4CCCCC4)C(=O)[C@H]3CC[C@@H]12 | – | inactive: -78.4% [at 11.4 µM] |
| COc1ccc(C(=O)N2CCC3(CC2)CCN(c2ccccc2)CC3)cc1 | inconclusive [activator, full curve] | – |
| CCCn1c(-c2ccc(F)cc2)nc2c(NCC3CCCN3CC)nc(C)nc21 (centres undefined) | inactive | – |
| Cc1ccccc1-c1cc(NCCN2CCOCC2)ncn1 | inconclusive [activator, partial curve] | – |
| C[C@H](NC(=O)[C@@H]1C[C@H]1[C@@H](NC(=O)OCc1ccccc1)c1ccccc1)c1ccccc1 | inactive | – |
| CC1CC[C@@]2(OC1)OC1CC3C4CC=C5CC(O)CC[C@@]5(C)C4CC[C@]3(C)C1C2C (some centres undefined) | inconclusive [activator, single point] | – |
| COC(=O)c1ccc(C(NC(=O)OCc2ccccc2)/C(I)=C/[C@@H](C)C(=O)NCc2ccc(C)o2)cc1 (some centres undefined) | inactive | – |
| Cc1ccc(S(=O)(=O)N[C@H]2COC(=O)C/C=C\[C@H](C)[C@@H](NS(=O)(=O)c3ccc(C)cc3)COC(=O)C/C=C\[C@@H]2C)cc1 | – | inactive: -90.7% [at 11.4 µM] |
| CCC1=C(OC(=O)N(CC)CC)N2C(=O)OC(=NCC(=O)OC)[C@]2(C)[C@H]2C1=CC[C@H]1C(=O)N(CC)C(=O)[C@H]12 | inactive | – |
| Cc1noc(C)c1C(=O)N1CCC2(CCN(C(=O)Nc3ccccc3)CC2)CC1 | inconclusive [activator, partial curve] | – |
| CCCCNc1nc(C)nc2c1nc(-c1ccccc1)n2CC1CCN(C)CC1 | inactive | – |
| CC(C)NC(=O)N1CCC2(CC1)CCN(C(=O)c1cc(C(F)(F)F)cc(C(F)(F)F)c1)CC2 | inconclusive [activator, single point] | – |
| Clc1ccc(C2[C@H]3CN(Cc4ccc(-c5ccccc5)cc4)[C@H](c4ccccc4)C34CC2(c2ccccc2)C4)cn1 (some centres undefined) | inactive | – |
| CCCn1c(-c2ccc(F)cc2)nc2c(NC3CCN(Cc4ccccc4)CC3)nc(C)nc21 | inconclusive [activator, partial curve] | – |
| COc1cccc2c1CCC1=CC(=O)CC[C@@]12C | inconclusive [activator, full curve] | – |
